Reference: PMC4336329 (PLoS ONE, 2015)
In all, about 310,000 compounds went through this assay and about 2,200 (0.71%) showed an effect of 50% or more. Effects have a minus sign here. Some of the results follow.

Each compound was assayed against human ether-à-go-go-related gene (hERG) potassium channel (human, UniProt Q12809) (assay: primary screen, population patch clamp on CHO cells stably expressing hERG).
Chain of human ether-à-go-go-related gene (hERG) potassium channel (Q12809 whole entry, looked up): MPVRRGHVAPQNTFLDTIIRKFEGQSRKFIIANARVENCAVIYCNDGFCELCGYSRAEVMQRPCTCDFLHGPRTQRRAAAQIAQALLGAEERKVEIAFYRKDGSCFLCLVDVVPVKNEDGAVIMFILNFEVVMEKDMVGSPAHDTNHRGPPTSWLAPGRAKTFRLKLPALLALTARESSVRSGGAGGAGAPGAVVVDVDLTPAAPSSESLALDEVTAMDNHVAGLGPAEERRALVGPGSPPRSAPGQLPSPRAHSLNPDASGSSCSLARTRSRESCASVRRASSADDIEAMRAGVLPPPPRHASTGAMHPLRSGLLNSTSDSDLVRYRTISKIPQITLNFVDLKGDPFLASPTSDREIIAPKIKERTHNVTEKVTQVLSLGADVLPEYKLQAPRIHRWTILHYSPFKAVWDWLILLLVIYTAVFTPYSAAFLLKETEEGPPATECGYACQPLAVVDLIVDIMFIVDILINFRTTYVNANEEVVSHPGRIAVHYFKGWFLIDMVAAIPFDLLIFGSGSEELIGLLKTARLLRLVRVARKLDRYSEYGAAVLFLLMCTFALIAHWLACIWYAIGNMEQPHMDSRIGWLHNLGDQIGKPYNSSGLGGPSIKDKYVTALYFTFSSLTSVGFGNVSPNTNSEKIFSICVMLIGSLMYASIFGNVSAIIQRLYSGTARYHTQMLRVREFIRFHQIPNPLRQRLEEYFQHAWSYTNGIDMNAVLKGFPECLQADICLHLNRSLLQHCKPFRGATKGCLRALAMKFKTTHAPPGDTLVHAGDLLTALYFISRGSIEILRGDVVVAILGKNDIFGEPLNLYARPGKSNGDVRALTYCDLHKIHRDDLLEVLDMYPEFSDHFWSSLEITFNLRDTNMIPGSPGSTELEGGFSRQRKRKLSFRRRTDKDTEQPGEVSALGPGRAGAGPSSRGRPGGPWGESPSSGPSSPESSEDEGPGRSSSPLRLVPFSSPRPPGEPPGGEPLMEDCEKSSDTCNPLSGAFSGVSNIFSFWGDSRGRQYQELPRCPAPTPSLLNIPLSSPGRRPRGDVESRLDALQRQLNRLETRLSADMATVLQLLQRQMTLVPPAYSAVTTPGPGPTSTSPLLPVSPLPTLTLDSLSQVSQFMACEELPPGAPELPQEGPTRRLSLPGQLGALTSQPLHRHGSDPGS

SMILES | hERG current change (%, negative = inhibition) at 1uM [%]
CS(=O)(=O)N1CCN(c2ccccc2NC(=S)NC(=O)c2cccs2)CC1 | 16.6
O=C(Oc1ccccc1)c1cc2ccccc2o1 | 11.6
CN(C)C/C=C/C(O)(c1ccccc1)c1ccccc1 | -0.919
Cn1cc([N+](=O)[O-])c(C(=O)N/N=C/c2ccncc2)n1 | 11.6
O=C(NCCCc1ccccc1)c1ccc(F)cc1 | 7.61
Cc1nc2ccccc2c(=O)n1/N=C/c1ccccn1 | 7.85
CCOC(=O)C1=C(C)N=C2SC(C(=O)OC)=CC(=O)N2C1c1ccc(OC)cc1 (stereo not shown) | -1.71
O=C(CN1CCN(C(=O)C2CCCO2)CC1)Nc1ccc(Cl)cc1 (stereo not shown) | 2.09
CCOn1c(=O)c(-c2ccc(Br)cc2)[n+]([O-])c2ccccc21 | 13.1
CCOc1cc(C(=S)N2CCOCC2)ccc1OC | 13.9
Cc1oc(C(C)(C)C)cc1C(=O)Nc1ccc(C(=O)O)cc1 | 1.99
Cc1ccc(N2CC(C(=O)Nc3cc(C)ccc3F)CC2=O)cc1 (stereo not shown) | 10.8
O=C(Cc1ccc([N+](=O)[O-])cc1)NCc1ccncc1 | 12.6
COc1ccc2c(c1OC)c(=O)n1c3ccc(OC(C)C(=O)NCCN4CCOCC4)cc3c3ccnc2c31 (stereo not shown) | 7.12
Cc1cccc(CN2C(=O)[C@H]3Cc4c([nH]c5ccccc45)C(C)(C)N3C2=O)c1 | 6.67
CC(=O)Nc1ccc2cc3ccc(NC(C)=O)cc3nc2c1 | 22.2
COc1ccc(C(CNC(=O)COc2ccc(-c3ccccc3)cc2)N2CCOCC2)cc1 (stereo not shown) | 1.07
O=C1NC2CCc3nc4ccccc4c(=O)n3C2=Nc2ccccc21 (stereo not shown) | -6.24
O=C(CCS(=O)(=O)c1ccccc1)Nc1ccc(Cl)cn1 | 11.5
Cc1cc(C)cc(Oc2ccc(C(F)(F)F)cc2C#N)c1 | 11.2

SMILES | hERG current change (%, negative = inhibition) at 1uM [%]
CCOC(=O)C1(CCCc2ccccc2)CCN(Cc2nccn2CC)CC1 | -45.8
Cc1cc(Cn2nc(C(=O)NCc3cccc(Br)c3)cc2-c2ccccc2)on1 | 8.88
O=C(c1cccc2ccccc12)N1CCC(N2CCN(c3ccccc3)CC2)CC1 | -2.01
CCOP(=O)(OCC)/C(=C/N1CCCCC1)NC(=O)c1ccccc1 | 13.7
O=C(CN1CCc2ccccc21)NC(c1ccccc1)c1ccccc1 | -1.48
N#CC(C(=O)c1ccco1)c1ccccn1 (stereo not shown) | 12.4
O=S(=O)(N/N=C/c1ccc(OC2CSC2)cc1)c1ccccc1 | 3.45
Cn1c(CSCc2ccccc2)n[nH]c1=S | 9.6
COc1ccc(N2CCN(S(=O)(=O)c3ccc(-c4cnc(C5CC5)o4)cc3)CC2)cc1 | 17.8
COC(=O)C1CN(C(=O)COc2cc(C)c(Cl)c(C)c2)c2ccccc2O1 (stereo not shown) | 17.5
C/C(=N\NC(=O)c1ccc(C)cc1C)c1ccc(-n2ccnc2)cc1 | -4.72
O=C1Nc2ccccc2Nc2ncccc21 | 5.2
Brc1ccc(-c2nnc(-c3ccccc3Br)o2)cc1 | 10.3
CNC(=S)N1CCN(c2nc(-c3cccc(OC)c3)cs2)CC1 | 6.81
CCN(CC)S(=O)(=O)c1ccc2oc(C(=O)Nc3ccc(OC)cc3OC)c(C)c2c1 | 10
CC(C)C[C@H](NC(=O)C1CCN(S(=O)(=O)c2ccccc2)CC1)C(=O)NCc1ccccn1 | 8.15
Cn1nnnc1NCc1c(F)cccc1Cl | 10.1
CCOC(=O)C1=C(CC)OC(N)=C(C#N)C1c1ccsc1 (stereo not shown) | 12.1
Cc1ccc(C)c(NC(=O)c2cc[n+](C)cc2)c1.[I-] | 10.9
Clc1c(Cl)c(Cl)c2n[nH]nc2c1Cl | 18

SMILES | hERG current change (%, negative = inhibition) at 1uM [%]
CC(=O)N(c1ccc(Cl)cc1)c1c[nH]c2ccccc12 | 0.849
O=C(NCC(=O)N1CCN(C(c2ccccc2)c2ccccc2)CC1)c1ccc(Br)o1 | 10.6
CC(C)CCc1c(O)nc(SCC(=O)N2CCCCCC2)[nH]c1=O | 10.6
COc1ccc(OCc2cc(C(=O)NC(C)Cc3cccnc3)no2)c(Cl)c1 (stereo not shown) | 6.07
CN(CCOc1ccc(Cl)cc1)C(=O)c1ccc(S(=O)(=O)N2CCOCC2)cc1 | -28.7
CCC(OC(=O)c1ccco1)C(=O)NCc1ccc(OC)cc1 (stereo not shown) | 9.51
CCOC(=O)CNC(=O)c1nn(-c2cccc(OC)c2)c(=O)c2ccccc12 | 1.39
CC(=O)c1ccc(NC2OC(C)C(O)C(O)C2O)cc1 (stereo not shown) | 9.5
C=CCc1cccc(/C=N/NC(=O)C(=O)Nc2ccc(C)cc2)c1O | 17.3
CC1(C)Cc2cccc(OCC(=O)N3CCN(c4cccc(Cl)c4)CC3)c2O1 | 13.6
Cc1nc(NC(=O)CN2CCCCC2)sc1C(=O)N(C)C | 0.291
Cc1ccc(N(C(=O)CNC(=O)c2ccco2)C(C(=O)NCC2CCCO2)c2ccccc2)cc1C (stereo not shown) | 3.11
CCOC(=O)N1CCC(NC(=O)C2CCN(S(=O)(=O)c3cnc[nH]3)CC2)CC1 | 11
Cc1ccccc1OCCN1C(=O)c2ccccc2C1=O | 7.18
COC(=O)C(NC(=O)c1ccco1)(Nc1nc(C2CC2)cs1)C(F)(F)F (stereo not shown) | 14.1
NC(=O)C1CCN(C(=O)c2ccc3c(c2)S(=O)(=O)c2ccccc2C3=O)CC1 | 6.98
Cc1ccc(OCCNC(=O)Cc2ccc(F)cc2)cc1 | 10.8
O=C(Nc1ccccc1C(=O)N1CCOCC1)c1ccco1 | -2.65
